Article PMC9886550, “Molecular mechanism of topoisomerase poisoning by the peptide antibiotic albicidin” (Nature Catalysis, 2023)
Read-outs that look alike come from different tables or passages of the source. Further values from the same series stand in other lists.

Target: T1, WT E. coli gyrase (Escherichia coli, UniProt P0AES4+P0AES6)
T1 construct: alternative cryo-EM approach involving full-length E. coli gyrase; 10-His (cleaved yes); Twin-Strep (cleaved yes); made in house
Type: biochemical
Protocol: For DNA gyrase supercoiling assays to characterize gyrase mutants, 15 µl reactions were set up containing 250 ng of relaxed DNA, E. coli gyrase supercoiling buffer (35 mM Tris–Cl pH 7.5, 24 mM KCl, 4 mM MgCl2, 2 mM DTT, 1.8 mM spermidine, 1 mM ATP, 6.0% (w/v) glycerol, and 0.1 mg ml^−1 BSA), gyrase subunits and inhibitors. Concentrations of enzyme and inhibitor are stated in the figure legends. Inhibitors were diluted in the following way to reduce the chance of precipitation: stock compound in 100% DMSO was diluted to 5 mM in 100% DMSO. This compound solution was diluted to 1 mM by stepwise addition of 1 µl of 50% DMSO with thorough mixing via pipetting after each addition. All subsequent dilutions up to 100 µM were performed in the same way using H2O. After this point, compounds were stable and could be diluted in the normal way. Reactions were incubated at 37 °C for 30 min before stopping with 15 µl chloroform:isoamyl alcohol (24:1 v/v) and 15 µl of STEB (40% (w/v) sucrose, 100 mM Tris–Cl pH 8, 10 mM EDTA, 0.5 mg ml^−1 bromophenol blue).
Cleavage assays were set up in the same way as supercoiling assays with some modifications. The concentration of enzyme was increased 4-fold relative to the supercoiling assay and reactions were incubated for 1 h before addition of 0.2% SDS and proteinase K (0.2 mg ml^−1) and further incubation at 37 °C for 30 min to trap cleavage complexes. Reactions were stopped in the same way as supercoiling assays.
Results were visualized by agarose gel electrophoresis: 1% agarose Tris-acetate-EDTA (TAE) gels were run without ethidium bromide (supercoiling) or with 10 µg ml^−1 ethidium bromide (cleavage) at 8 V cm^−1.
DNA cleavage gels were analysed using densitometry (ImageJ). Experiments were carried out in triplicate and expressed as mean ± s.d. Curves were fitted using OriginPro 2021 (Origin Lab) according to a modified Hill equation:1 y=cI+(cF−cI)[…]/(k^n+x^n) where y is the percentage of cleaved DNA, cI is the initial cleavage, cF is the final cleavage, k is the CC50 (the concentration of inhibitor that results in cleavage of 50% of DNA), n is a slope factor and x is the inhibitor concentration.

Row | Compound | % cleaved DNA Average (0.00025 µM, average of 3) [%] | % cleaved DNA Average (0.0005 µM, average of 3) [%] | % cleaved DNA Average (0.001 µM, average of 3) [%] | % cleaved DNA Average (0.005 µM, average of 3) [%] | % cleaved DNA Average (0.01 µM, average of 3) [%] | % cleaved DNA Average (0.05 µM, average of 3) [%] | % cleaved DNA Average (0.1 µM, average of 3) [%] | % cleaved DNA Average (0.5 µM, average of 3) [%] | % cleaved DNA Average (1 µM, average of 3) [%] | % cleaved DNA Average (Albi-2 0.001 µM) [%] | % cleaved DNA Average (Albi-2 0.005 µM) [%] | % cleaved DNA Average (Albi-2 0.01 µM) [%] | % cleaved DNA Average (Albi-2 0.05 µM) [%] | % cleaved DNA Average (Albi-2 0.1 µM) [%] | % cleaved DNA Average (Albi-2 0.5 µM) [%] | % cleaved DNA Average (Albi-2 1 µM) [%] | % cleaved DNA Average (Albi-2 5 µM) [%] | % cleaved DNA Average (Albi-2 10 µM) [%]
1 | CC(C)Oc1c(NC(=O)c2ccc(NC(=O)[C@H](Cc3c[nH]nn3)NC(=O)c3ccc(NC(=O)c4ccc(C#N)cc4)cn3)cn2)ccc(C(=O)Nc2ccc(C(=O)O)cc2)c1O [Albi-1] | 5.528 | 6.752 | 9.419 | 35.7477 | 36.7121 | 67.2109 | 69.4506 | 72.578 | 65.4906 | – | – | – | – | – | – | – | – | –
2 | COc1c(NC(=O)c2ccc(NC(=O)c3ccc(NC(=O)[C@H](Cc4c[nH]nn4)NC(=O)c4ccc(NC(=O)c5ccc6cc(O)ccc6c5)cc4)cn3)c(OCCN)c2O)ccc(C(=O)O)c1O [Albi-2] | – | – | – | – | – | – | – | – | – | 4.251 | 4.814 | 6.4087 | 21.2457 | 31.0834 | 69.2374 | 71.7749 | 77.8853 | 77.3078
